The target in this assay is Flag-tagged extracellular domain of the membrane-bound CTLA-4 (Flag-memCTLA-4-ECD) (human) (UniProt P16410). The assay can be described thus: Western blot after SDS-PAGE under non-reducing and reducing conditions; 10 ng of Flag-memCTLA-4-ECD or Flag-sCTLA-4.

With “Flag-tagged extracellular domain of the membrane-bound CTLA-4 (Flag-memCTLA-4-ECD) (a stretch of the chain, chain not printed) (domain or fragment; other documents disagree on this pair)”, the stoichiometry N is 2.

The values are drawn from article PMC6502797.
